For the assay, the target named is T1, human CTLA-4 on Jurkat cells engineered to constitutively express human CTLA-4 (Promega) (human, UniProt P16410 36-223).
T1 construct: Bought cell line; also called CTLA-4-expressing cells; cells expressing human CTLA-4
Nature of the assay: flow cytometry, 5 µg/ml antibody on Jurkat cells expressing human CTLA-4. On the procedure: The binding of anti-CTLA-4 antibodies AGEN1884.H3 (IgG_1 S239D/I332E), AGEN1884.H3 (IgG_1 S239D/A330L/I332E), and AGEN1884.H3 (IgG_1L235V/F243L/R292P/Y300L/P396L) to CTLA-4-expressing cells was characterized similarly as described above. Briefly, Jurkat cells engineered to express human CTLA-4 (Promega) were stained first with 5 μg/ml of an anti-CTLA-4 antibody or an isotype control antibody and then with an anti-human IgG secondary antibody (Thermo Scientific, Cat #31529). The cells were analyzed using BD FACS Canto II.

B1: AGEN1884.H3 (IgG1 S239D/I332E) (antibody)
heavy: EVQLVESGGGLVKPGGSLRLSCAASGFTFSSYSMNWVRQAPGKGLEWVSSISSSSSYIYYAESVKGRFTISRDNAKNSLYLQMNSLRAEDTAVYYCARVGLFGPFDIWGQGTLVTVSSASTKGPSVFPLAPSSKSTSGGTAALGCLVKDYFPEPVTVSWNSGALTSGVHTFPAVLQSSGLYSLSSVVTVPSSSLGTQTYICNVNHKPSNTKVDKRV[human IgG1 Fc with changes left out]
light: EIVLTQSPGTLSLSPGERATLSCRASQSVSRYLGWYQQKPGQAPRLLIYGASTRATGIPDRFSGSGSGTDFTLTITRLEPEDFAVYYCQQYGSSPWTFGQGTKVEIKRTVAAPSVFIFPPSDEQLKSGTASVVCLLNNFYPREAKVQWKVDNALQSGNSQESVTEQDSKDSTYSLSSTLTLSKADYEKHKVYACEVTHQGLSSPVTKSFNRGEC
Consider B1, for which the binding result is recorded as “binds”.

Values taken from US12246066 (AGENUS, dated 2025).
